In the supplement of paper PMC11417369:
± gives the standard deviation of the averaged measurements. Some of the results follow.

Test system: PfAP2-I AP2 domain 3 (GST-tagged)
Assay: gcPBM binding intensity (ln(normalized median fluorescence intensity)); higher = stronger DNA binding
In short: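 GST-tagged P. falciparum DNA-binding domains, expressed in E. coli (about 25 μg on average), were applied for 1 h to an Agilent 4 × 180k array of primer-extended double-stranded 36-bp intergenic genomic probes plus negative controls. The binding buffer was 1× PBS with 1% milk, 0.2 mg/ml BSA, 0.5% salmon testes DNA and 0.03% Triton X-100. Bound protein was detected with Alexa488 anti-GST antibody and scanned at 488 nm. Binding intensity is the highest Masliner-normalised natural-log median intensity across replicate spots of either probe orientation.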

Sequence	gcPBM binding intensity (ln)
TATTTTTTAAAAAAATGTCATAAAATTTCTTTTTTC [XGTACX_negctrl_site271]	7.33 ± 0.55
AGAAAAAAATAATGTACACACACATATATGTTTATA [CACACA_site7946]	7.81 ± 0.51
ATATACAAAGGATTAACACACATATTATTATATATA [CACACA_site1880]	7.58 ± 0.58
TAATGTAATACATATTGTACACATACATATATATTT [XGTACX_site7531]	7.83 ± 0.25
GGGTATACCAATATAACACACATATATCTATAATAT [CACACA_site6348]	7.72 ± 0.57
ATATATAATCATCACACATGCAGCCCTGATGAAAAA [TGCATGCA_site687]	7.97 ± 0.64
TATTAAAAGGTTAAAGCATGCATACATATATATGTT [TGCATGCA_site865]	7.79 ± 0.69
TTTTTGTTACCTATTGTGCACTTCATATAAATTAAA	11.3 ± 0.35
AATAATAAATAAAAATGTACACATACATTTCTATCC [XGTACX_site7057]	7.64 ± 0.4
TATAAATTTTTATTTACATGCAGTTATTATTTCCAT [TGCATGCA_site41]	7.87 ± 0.79
ATATATATATATATATGTACATATTTATATTGTAAA [XGTACX_site8878]	9.07 ± 0.39
TATATATATATATATTGTACGAACCTTTTTTTTTTT [XGTACX_site4169]	9.53 ± 0.057
TGATACGTATTTATTTCACACACGTTAAAAAAATAA [CACACA_site3914]	7.72 ± 0.35
TAATTTTTTAAATTTAAACACACATTTTGTATATGT [CACACA_site8479]	7.67 ± 0.63
CTAACACTAATTTTTTGTACACAATATGTAAATAAA [XGTACX_site6424]	7.96 ± 0.24
ATTTTTACATAGGAAGCATGCATATTTTAAAAATAA [TGCATGCA_site1046]	7.62 ± 0.66
TTATTTCTGAATATTTTTTTTTTTTCTTCTTTTTTA [CACACA_negctrl_site815]	7.06 ± 0.69
CATGTGTTCTATATTTATGTCTAACTTTTTAATTAA [CACACA_negctrl_site904]	7.79 ± 0.49
TATACATTATTATTATGTACTTAAATATATATTATA [XGTACX_site5173]	7.54 ± 0.18
ATTAACACATTTAAGTGTACATATATAAATATATAT [XGTACX_site7098]	7.82 ± 0.57
TGTGCACGTTCTGTGACACACATTTAAATGTGCTTA [CACACA_site176]	9.87 ± 0.23
ATATAACTCAAGGGCACACATATACCTTTCCTTTTT [CACACA_site4390]	8.32 ± 0.63

Sequence	gcPBM binding intensity (ln)
GGAACGTATATTTTCACACACTCTCAAAAGTACAAG [CACACA_site2301]	8.09 ± 0.55
GAAACAAAATTATTTTGTACATATGACTGTAGATAT [XGTACX_site972]	7.88 ± 0.54
ATATATATATATAGTTGTACTTAATTTTATATGTTA [XGTACX_site5256]	9.53 ± 0.35
CCTTGATATATATAAAGTACATATATATATATATAT [XGTACX_site4325]	9.38 ± 1
GTGAAATTATTTCCGTGTACACATAAATATATATTT [XGTACX_site3989]	8.39 ± 0.61
AAACTTATAAAAAGTAGTACCATAAAATAATACATA [XGTACX_site6523]	7.66 ± 0.15
TTTTACAAATATTACTGTACACATTTTCATATAATT [XGTACX_site17]	8.14 ± 0.41
TGTTGTATATCTCTATATAGCTATATTGTATATATA [TGCATGCA_negctrl_site323]	7.7 ± 0.72
TATATTATTTATTAGACACACATTATTAAAATATTT [CACACA_site4737]	7.54 ± 0.51
AATACACGCAGACACACACACAAAAAAAAAAAAAAA [CACACA_site6384]	8.14 ± 0.51
ATTTTGTTATGAAACACACACATATAAATATAAATA [CACACA_site7679]	7.76 ± 0.48
TATATAAAACATGGGTGTACCAACATAAATCATATA [XGTACX_site2320]	7.84 ± 0.62
AATTGTGCATTATATTGTACACGTGTTGTATATATT [XGTACX_site975]	11.1 ± 0.4
TTGAATATGGTTACATGTACGTATCAATATTTTTTA [XGTACX_site4247]	7.54 ± 0.23
ACATATATTTCAAAGTGTACGCACAATTTTTTTTAC [XGTACX_site6166]	8.54 ± 0.39
AACATATATATAATATGTACATAATATATATAAATG [XGTACX_site1161]	7.62 ± 0.35
TTATTATTTTTTAACACACACATATATATTATATCT [CACACA_site4906]	8.15 ± 0.38
GTAAGAACACTTTTGTGGTTACTTAAAAGTGTATAT [GTGCAC_negctrl_site422]	7.68 ± 0.55
ATTTCAACAAATATAACACACAATGGATAAGAATAA [CACACA_site1974]	7.96 ± 0.72
TTAGTTTCCCAAATATGTACATAAATATAAATCATA [XGTACX_site2746]	7.99 ± 0.15
AATACAGTTAGAGAAAGTACACAACTAATATACATA [XGTACX_site8814]	7.86 ± 0.35
TGCTTATATGTTGTTACACACTAAAATAGTTAGATA [CACACA_site1277]	7.94 ± 0.54
